The other results are listed elsewhere or left out. Sequences were assembled here from the parent chain. Values near 0.05 are background.
B1: TEV protease; numbered along this chain (parent)
chain: MGESLFKGPRDYNPISSSICHLTNESDGHTTSLYGIGFGPFIITNKHLFRRNNGTLVVQSLHGVFKVKDTTTLQQHLVDGRDMIIIRMPKDFPPFPQKLKFREPQREERICLVTTNFQTKSMSSMVSDTSCTFPSGDGIFWKHWIQTKDGQCGSPLVSTRDGFIVGIHSASNFTNTNNYFTSVPKNFMELLTNQEAQQWVSGWRLNADSVLWGGHKVFMVKPEEPFQPVKEATQL

Variants of: B1
Assay: raw area under fraction-flipped curve 0-4 h after induction (AUC4h, not background-subtracted), DNA-recorder readout of cleavage of the substrate (dimensionless); higher = more cleavage of the substrate by the protease variant
Details: temperature: 34 °C; time window: 0-4 h after rhamnose induction
Experimental: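 In vivo DNA recorder in E. coli TOP10(DE3) ΔrhaA at 34 °C. Each TEVp single-site mutant (parent TEVp 0) is paired with a single-site variant of the 7-mer TEVs (canonical ENLYFQ|S). The substrate sits between flexible linkers in a Bxb1-sfGFP-TEVs-SsrA fusion, so cleavage stabilises Bxb1 and speeds flipping of a recombination array, read by NGS. The value is the raw area under the fraction-flipped curve over 0-4 h after rhamnose induction (AUC4h), with ≥20 reads per time point. It is not background-subtracted; inactive controls average about 0.047.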
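Also: Bxb1 expression induced with 0.2% (w/v) L-rhamnose at OD600 near 0.5, cultures sampled hourly, flipped fraction per protease–substrate barcode pair counted by paired-end Illumina sequencing.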

| Variant | area with substrate ENLYFQA | area with substrate ENLYFQC | area with substrate ENLYFQE | area with substrate ENLYFQF | area with substrate ENLYFQH | area with substrate ENLYFQI | area with substrate ENLYFQK | area with substrate ENLYFQL | area with substrate ENLYFQM | area with substrate ENLYFQN | area with substrate ENLYFQP | area with substrate ENLYFQR | area with substrate ENLYFQS | area with substrate ENLYFQT | area with substrate ENLYFQV | area with substrate ENLYFQW | area with substrate ENLYFQY | area with substrate ENLYFQG | area with substrate ENLYFQD | area with substrate ENLYFQQ |
| --- | --- | --- | --- | --- | --- | --- | --- | --- | --- | --- | --- | --- | --- | --- | --- | --- | --- | --- | --- | --- |
| S169I | 0.0645 | 0.0506 | 0.0688 | 0.0819 | 0.056 | 0.0574 | 0.0677 | 0.0646 | 0.0548 | 0.0509 | 0.062 | 0.047 | 0.0605 | 0.0675 | 0.0568 | 0.0449 | 0.0444 | – | – | – |
| D137V | 0.0958 | 0.117 | – | – | 0.0745 | 0.049 | – | 0.0593 | 0.097 | 0.0779 | 0.0605 | 0.0603 | 0.106 | 0.058 | 0.0612 | – | – | 0.0689 | – | – |
| F173E | 0.0744 | 0.13 | – | 0.0486 | 0.0727 | 0.0439 | – | – | 0.0717 | 0.0213 | – | 0.0371 | 0.104 | – | 0.0639 | – | – | – | – | – |
| T174S | 0.0702 | – | – | – | 0.0759 | 0.0576 | – | – | 0.0937 | – | – | 0.0517 | 0.0983 | 0.0721 | – | – | 0.0618 | – | – | – |
| D149T | 0.0887 | 0.0944 | – | 0.0782 | – | 0.0518 | 0.0516 | 0.0543 | 0.0679 | 0.0735 | 0.0623 | 0.0603 | 0.0878 | 0.0681 | 0.0649 | 0.0606 | – | – | – | – |
| E189T | 0.0855 | 0.13 | – | – | – | 0.0711 | 0.0732 | 0.056 | 0.0891 | 0.0878 | 0.0591 | 0.0441 | 0.102 | 0.0648 | – | 0.0496 | 0.094 | – | 0.073 | 0.0657 |
| E189C | 0.0626 | – | – | 0.0591 | – | 0.0601 | 0.0592 | 0.0486 | 0.0866 | 0.0691 | 0.0577 | 0.0383 | 0.0777 | 0.0474 | 0.0348 | 0.0612 | 0.0815 | 0.0826 | 0.0614 | 0.0717 |
| E189N | 0.0873 | 0.11 | – | 0.119 | 0.0715 | 0.0601 | 0.0613 | 0.0595 | 0.0821 | 0.109 | 0.0565 | 0.056 | 0.102 | 0.062 | 0.0603 | – | 0.0792 | 0.106 | 0.0821 | 0.0745 |
| E189G | 0.0774 | 0.121 | 0.0582 | – | – | 0.0535 | 0.056 | 0.0735 | 0.0904 | 0.0959 | 0.0716 | 0.048 | 0.097 | 0.0557 | 0.0525 | – | 0.0742 | 0.0833 | 0.078 | 0.0867 |
| N178A | 0.0854 | 0.141 | – | – | – | 0.0793 | – | – | – | – | 0.0517 | 0.0536 | 0.108 | – | – | 0.0688 | – | – | 0.105 | – |
| Q146D | 0.0893 | – | – | – | – | 0.0534 | 0.0651 | 0.0631 | – | 0.0692 | 0.0565 | 0.0577 | 0.105 | – | – | 0.0664 | 0.0693 | 0.0878 | 0.0714 | – |
| Q146V | 0.0546 | 0.122 | – | – | – | 0.051 | 0.105 | 0.0474 | – | 0.0782 | – | 0.0464 | 0.106 | 0.064 | – | – | – | 0.11 | 0.076 | – |
| Q146P | 0.0943 | 0.109 | – | – | – | – | 0.0658 | – | 0.0816 | 0.0927 | 0.0646 | – | 0.103 | 0.0725 | 0.0529 | 0.082 | 0.0984 | 0.0935 | – | – |
| K142W | 0.0861 | – | – | 0.0846 | 0.0587 | 0.0517 | 0.0952 | 0.0536 | 0.0593 | 0.0553 | – | 0.0668 | 0.0736 | 0.0568 | 0.06 | 0.0757 | – | – | 0.0523 | – |
| F187Y | 0.0647 | – | – | 0.0528 | 0.0768 | 0.0564 | 0.0557 | 0.0639 | 0.0832 | 0.0612 | 0.0388 | 0.0559 | 0.0755 | 0.0581 | 0.046 | 0.0711 | – | 0.0644 | 0.0525 | 0.076 |
| V165P | 0.0305 | 0.0683 | – | – | – | – | 0.0487 | – | – | 0.0455 | 0.0548 | – | 0.0533 | 0.0585 | 0.049 | 0.0386 | – | 0.0843 | 0.0546 | 0.0439 |
| M188N | 0.13 | 0.114 | – | – | 0.0577 | – | 0.0478 | 0.0784 | – | 0.07 | – | 0.0423 | 0.0957 | – | 0.065 | 0.0835 | 0.073 | 0.0839 | 0.0615 | – |
| T147M | 0.0855 | 0.0938 | – | – | 0.0067 | – | 0.0583 | – | – | 0.0691 | – | 0.0642 | 0.0859 | 0.0818 | 0.0591 | – | 0.0658 | 0.0956 | – | – |
| Q151N | 0.0691 | 0.0758 | – | – | 0.0715 | – | 0.0466 | – | 0.0726 | 0.0644 | 0.0575 | 0.0584 | 0.0757 | 0.0643 | 0.0557 | 0.0616 | 0.0647 | 0.0923 | 0.0637 | – |
| G166F | 0.0467 | 0.047 | – | – | – | 0.0363 | – | 0.0538 | 0.0388 | 0.058 | 0.0456 | 0.0359 | 0.0495 | 0.0485 | 0.0569 | 0.0531 | 0.0491 | 0.0621 | – | 0.0435 |
| S182R | 0.0699 | – | – | – | – | 0.0653 | 0.0547 | 0.0702 | 0.0686 | 0.0364 | – | 0.0545 | 0.069 | 0.0629 | – | 0.0412 | 0.0525 | – | 0.0597 | – |
| T159I | 0.0775 | – | – | – | – | – | – | – | 0.0838 | 0.058 | 0.0532 | 0.0579 | 0.109 | 0.0782 | – | – | – | 0.0758 | – | – |
| G136C | 0.0914 | 0.117 | – | 0.0963 | 0.0871 | 0.053 | 0.0717 | 0.0579 | 0.11 | 0.0786 | 0.0461 | 0.0355 | 0.111 | 0.0622 | – | – | 0.0743 | 0.0075 | 0.0741 | – |
| S158N | 0.071 | 0.0819 | – | 0.0582 | – | 0.0771 | – | 0.0548 | 0.0602 | 0.0639 | 0.0459 | – | 0.0802 | 0.0959 | 0.0502 | 0.0493 | – | – | 0.0603 | – |
| S158Y | 0.066 | 0.0528 | – | – | 0.0433 | 0.0656 | 0.0569 | 0.0506 | 0.04 | 0.0498 | – | 0.0416 | 0.0536 | 0.0454 | – | 0.0479 | 0.0343 | – | 0.0582 | – |
| E195R | 0.0857 | 0.115 | – | – | 0.0979 | – | 0.0603 | 0.0561 | 0.0955 | 0.063 | 0.0641 | – | 0.0948 | – | – | 0.075 | – | 0.1 | 0.0781 | – |
